# Measurements published in PubChem BioAssay (NCATS).
# Several values for one entry are separate records, joined by “and”; a condition that tells them apart may be missing. Equal values may be shown once. Inconclusive means that the source gave no clear call. Such entries were picked first, then a sample of the others. Potencies beside an inconclusive call are fits to weak or partial responses and may not hold up. Activity calls are given as the source filed them. The call rests on the fitted dose curve; in most records, active means well fitted cell-killing curve with a large enough effect; inconclusive means small, poorly fitted or top-dose-only effect, or effect the other way; inactive means no such curve, though single readings can be large or run the other way.
# Assay: Viability qHTS for spleen associated tyrosine kinase inhibitor (SYKi) naive MV4-11 cells (AID 1963823); further: nearly all actives have a fitted effect of over 40% in size
# Conditions: MV4-11 AML viability, CellTiter-Glo luminescence, 72 h; viability (% of control): at 45 µM (top of the series)
# Outline: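 qHTS, SYK inhibitor-naive MV4-11; 500 cells/well; 72 hr compound exposure, 37 C; CellTiter-Glo added, 10 min RT; luminescence read.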
# Potency means the concentration at half of the fitted maximal effect; tags describe the fitted curve by direction and shape.
Compound,Potency,viability (% of control)
C[C@H](Oc1ccc(S(C)(=O)=O)cc1C(=O)N1CCN(c2ncc(C(F)(F)F)cc2F)CC1)C(F)(F)F,"inconclusive: 16.4 µM [cytotoxic, single point]",–
Cn1c(=O)n(-c2ccc(C(C)(C)C#N)cc2)c2c3cc(C#Cc4cccnc4)ccc3ncc21,"inconclusive: 0.0317 µM [cytotoxic, full curve]",–
O=C(Nc1cnc(Cl)nc1)c1ccc(F)c(F)c1,–,inactive: 47.2%
c1ccc(N2CCN(CCc3nn[nH]n3)CC2)cc1,"inconclusive: 0.164 µM [cytotoxic, single point]",–
CC1CC(=O)C2=C(C1)C1OC1C1(O)C2C(=O)c2cccc(O)c2C1O (configuration not stated),–,inactive: 6.09%
OC[C@H]1O[C@@H](OCCc2ccc(O)cc2)[C@H](O[C@@H]2OC[C@](O)(CO)[C@H]2O)[C@@H](O)[C@@H]1O,–,inactive: 85% [at 17.3 µM]
C=C(C)C(=O)O[C@H]1C[C@@](C)(O)C2(O)CCC(C)(/C=C3/OC(=O)C(COC)=C31)O2 (some centres not stated),active: 0.718 µM,–
CC(=O)OC/C(=C/C(=O)O)CC[C@@H]1C(CO)=CC[C@@H]2C(C)(C)CCC[C@@]12C,"inconclusive: 14.3 µM [cytotoxic, single point]",–
Nc1ccc(/C=C/C(=O)NCc2cc3cc(-c4ccc(C(=O)N5CCC(F)(F)CC5)cc4)cc(-c4ccc(F)cc4)c3o2)cn1,active: 148 nM and active: 184 nM,–
CCN1/C(=C/C(C)=O)Sc2ccc(O)cc21,"inconclusive: 9.2 µM [cytotoxic, partial curve]",–
CC1CCC(=O)CC(SCC(O)C(=O)O)CCC(=O)O1 (configuration not stated),"inconclusive: 11.6 µM [cytotoxic, partial curve]",–

# Assay: Viability qHTS for spleen associated tyrosine kinase inhibitor (SYKi) drug resistant MV4-11 cells (AID 1963824); further: nearly all actives have a fitted effect of over 35% in size
# Conditions: SYKi-resistant MV4-11 viability, CellTiter-Glo, 72 h; series mostly up to 45 µM; viability, % of control: at the top concentration
# Outline: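 SYK inhibitor-resistant MV4-11 AML cells, 500 per well, added to predispensed compounds and incubated 72 hr at 37 C, 5% CO2. Viability measured by CellTiter-Glo luminescence after 10 min at room temperature.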
Compound,Potency,"viability, % of control"
O=C(COc1cccc2c(=O)[nH]ccc12)c1ccccc1,"inconclusive: 13 µM [cytotoxic, partial curve, poor fit]",–
CC(C)(C)n1nc(Cc2cccc([N+](=O)[O-])c2)c2c(N)ncnc21,active: 5.17 µM,–
COC(=O)C(Cc1ccccc1)NC(=O)c1ccccc1 (configuration not stated),"inconclusive: 20.6 µM [cytotoxic, partial curve]",–
CC1(C)O[C@@H]2C[C@H]3[C@@H]4CCC5=CC(=O)C=C[C@]5(C)[C@@]4(F)[C@@H](O)C[C@]3(C)[C@]2(C(=O)CO)O1,"inconclusive: 4.68 µM [cytotoxic, full curve]",–
CC(C)=CCC[C@](C)(O[C@@H]1O[C@H](CO[C@@H]2O[C@H](CO)[C@@H](O)[C@H](O)[C@H]2O)[C@@H](O)[C@H](O)[C@H]1O)[C@H]1CC[C@]2(C)[C@@H]1[C@H](O)C[C@@H]1[C@@]3(C)CC[C@H](O[C@@H]4O[C@H](CO)[C@@H](O)[C@H](O)[C@H]4O[C@@H]4O[C@H](CO)[C@@H](O)[C@H](O)[C@H]4O)C(C)(C)[C@@H]3CC[C@]12C,–,inactive: 111% [at 17.3 µM]
Nc1nc2c(ncn2[C@@H]2O[C@H](CO)[C@@H](O)[C@H]2O)c(=O)[nH]1,–,inactive: 69.5%
CCC1(c2cnc[nH]2)Cc2ccccc2C1,–,inactive: 87.3%
NC/C=C/C(=O)O,–,inactive: 94.9%
CCC(=C(c1ccc(OCCN2CCCC2)cc1)c1ccc(OCCN2CCCC2)cc1)c1ccccc1,"inconclusive: 3.66 µM [cytotoxic, full curve]",–
CCN(CC)CCN,–,inactive: 81.8%
CC(=O)O[C@@H]1[C@@H](O)[C@H](O[C@H]2CC[C@]34C[C@]35CC[C@]3(C)[C@@H]([C@@]6(C)CC[C@@H](C(C)(C)O)O6)[C@@H](O)C[C@@]3(C)[C@@H]5C[C@H](O[C@@H]3O[C@H](CO)[C@@H](O)[C@H](O)[C@H]3O)[C@H]4C2(C)C)OC[C@H]1O,–,inactive: 78.1%
COC(=O)CCC(=O)OC[C@]1(C)CCC[C@@]2(C)C3CC[C@]4(C)C=CC3(CCC12)C4 (some centres not stated),–,inactive: 80% [at 17.3 µM]
CCC(C)C(=O)O[C@H]1[C@@H](OC(=O)c2ccoc2)C[C@](C)(O)[C@]23OC(C)(C)[C@H](C[C@H](OC(=O)c4ccoc4)[C@]12COC(C)=O)[C@H]3OC(C)=O (some centres not stated),"inconclusive: 7.69 µM [cytotoxic, partial curve, poor fit]",–
CC(=O)c1ccc(O[C@@H]2O[C@H](CO[C@@H]3OC[C@@H](O)[C@H](O)[C@H]3O)[C@@H](O)[C@H](O)[C@H]2O)cc1,–,inactive: 102% [at 17.3 µM]
c1ccc2c(Nc3nnc(-c4ccncc4)s3)cccc2c1,"inconclusive: 16.4 µM [cytotoxic, single point]",–
C=CCNC(N)=S,–,inactive: 91.5%
